# Over roughly 33,000 sequences, “E-score (-0.5 to 0.5)” has its median near -0.032; the highest 2% begin near 0.36. This is one part of the list.
# Biological target: T1, Sko1 (UniProt Q02100)
# T1 sequence: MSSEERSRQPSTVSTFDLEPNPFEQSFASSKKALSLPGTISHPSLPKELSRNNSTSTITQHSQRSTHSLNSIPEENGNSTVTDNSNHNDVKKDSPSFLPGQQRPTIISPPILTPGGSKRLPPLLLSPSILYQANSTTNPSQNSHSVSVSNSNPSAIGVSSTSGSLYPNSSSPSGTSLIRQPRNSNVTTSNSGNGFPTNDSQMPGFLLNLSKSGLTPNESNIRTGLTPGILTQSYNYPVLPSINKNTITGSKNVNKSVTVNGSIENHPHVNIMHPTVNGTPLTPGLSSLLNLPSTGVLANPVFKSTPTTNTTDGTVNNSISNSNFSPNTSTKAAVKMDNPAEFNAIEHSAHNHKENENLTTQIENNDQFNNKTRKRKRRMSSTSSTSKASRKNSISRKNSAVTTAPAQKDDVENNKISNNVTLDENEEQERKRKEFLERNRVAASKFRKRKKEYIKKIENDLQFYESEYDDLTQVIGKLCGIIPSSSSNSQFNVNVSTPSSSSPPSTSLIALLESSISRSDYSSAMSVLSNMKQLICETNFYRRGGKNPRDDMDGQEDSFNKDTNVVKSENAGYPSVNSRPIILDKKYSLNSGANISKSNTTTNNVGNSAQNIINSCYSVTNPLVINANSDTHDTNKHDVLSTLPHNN
# Experiment: PBM E-score (8-mer binding enrichment) (E-score (-0.5 to 0.5)); higher = stronger / more preferred TF binding; most listed sequences are background and not binding sites
# Settings: protein concentration: 200 nM; construct: GST-full length
# Summary of the method: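 Universal all-10-mer Agilent arrays, double-stranded by primer extension on fresh or once-stripped slides, were probed with about 100-200 nM GST-tagged yeast transcription factors made by PURExpress. Fluorescent anti-GST detected bound protein, and masliner normalised the scans. E-scores from the Universal PBM Analysis Suite were given to each ungapped eight-base word pooled with its reverse complement.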
row,Sequence,PBM E-score
1,ACATAGCT,-0.0675
2,GTTGTCAA,0.0182
3,CCCGGTCA,-0.286
4,GCACATGA,0.148
5,AGAAAACC,-0.184
6,GGAATACC,-0.265
7,GCTATTAA,0.117
8,TCACTTAA,0.00059
9,ATATTGAC,0.148
10,AAGCCCCT,-0.215
11,ACCATTAG,0.0481
12,GTAATACA,0.305
13,CGACGTTA,0.337
14,ACTACGGC,-0.0407
15,CAAGCGGC,-0.157
16,GACGCGGC,0.0974
17,ACTTGACA,0.26
18,CTCTTTAC,-0.0251
19,ATTGACCC,-0.125
20,ACTCAACG,0.182
21,ACTTAAGG,-0.0337
22,ACGGCGCT,-0.245
23,ATAGGTGG,-0.135
24,CAAATCAG,0.131
25,GGGGCCCA,-0.277

row,Sequence,PBM E-score
1,TACGACGA,0.117
2,GGCTCATA,-0.121
3,CTGATAGC,-0.0862
4,CATTCCGA,0.0454
5,CCTAAATA,0.0638
6,AGCACCTC,-0.152
7,ACCCCAAA,-0.0832
8,ATATTTCA,0.143
9,AACAAGGG,0.00333
10,AAACAAAC,0.0996
11,AAGATCTG,-0.0413
12,CTCCCAAA,-0.155
13,AAAATGGT,0.052
14,CGCATCAA,0.0565
15,ATGTCCTA,-0.00896
16,ACATCCCT,-0.0952
17,TGTAGGAA,-0.036
18,CACGTCCC,0.00358
19,AGGTTGAA,-0.00618
20,AAGAGCTG,-0.192
21,AAATACCG,0.0395
22,AGGCCCAA,-0.132
23,TTATAGAA,0.14
24,CGCCACAG,-0.198
25,CCTGTTTC,-0.132

row,Sequence,PBM E-score
1,CCGAAATA,0.199
2,ATTGAAAG,0.0132
3,AGCAGTCA,-0.132
4,ACTTTTGG,-0.00511
5,AAACCGTG,0.00279
6,CCTGCAGC,-0.09
7,CCGTTACA,0.0591
8,GCCGCATA,-0.00332
9,TATCCATA,0.107
10,TGCCAACA,-0.0861
11,TATCGGGA,-0.118
12,AAATAGAT,0.229
13,AGTTAGTG,0.0484
14,ACCGGCGA,-0.15
15,ACTGTGAT,0.0683
16,CTCTATAA,0.183
17,ATAAGCAC,0.0902
18,TACTGACA,0.103
19,CATATAGG,-0.074
20,AAACTATC,-0.0519
21,CTGGGTGC,-0.208
22,ACATCATC,0.43
23,GGCCAATA,-0.114
24,CGATTCCG,-0.142
25,AGCTTACA,0.163

row,Sequence,PBM E-score
1,CTCGTAGA,-0.217
2,GGGAGGAA,-0.152
3,TAGCGGCA,-0.0879
4,GAAGTGGA,-0.188
5,AAACCAGC,-0.185
6,TCCGGCGA,-0.0144
7,GACCTCCA,-0.271
8,CCGGACAA,-0.23
9,AACGCGGC,-0.139
10,GGAGTATA,0.11
11,CGGTCTTC,-0.218
12,GTGATCGA,0.103
13,CCCATGAG,-0.292
14,ATGAATGA,0.181
15,GGAAAGCC,-0.229
16,ATTGGCCA,-0.0321
17,TGGTGCAA,-0.0842
18,GTCCCTTA,-0.0334
19,AACGACGA,0.166
20,GAGAGCTA,-0.0177
21,GAAGATGA,0.169
22,ACCGTACA,0.0593
23,GTACGCCA,0.293
24,CTGACTAC,0.101
25,ACTAAACG,0.0963

row,Sequence,PBM E-score
1,CACCGCAC,-0.0956
2,GCATGGCA,-0.0913
3,CAGCTTGG,-0.268
4,ACGGGTAA,-0.0611
5,GCGAAACC,0.0131
6,AAAGGAAC,-0.0213
7,TCTATAGA,-0.114
8,GCGCCCAA,-0.172
9,CTAACCTC,-0.0769
10,GAGGCCCC,-0.481
11,AGGCCCAT,-0.288
12,CCGAGAGC,-0.255
13,ATTAGCAA,0.282
14,AAAGGTTA,-0.0111
15,ACCGCCGC,-0.142
16,ACCGCGTC,0.173
17,TATCGTAA,0.317
18,GGTGATAC,-0.104
19,AAAAGCAG,-0.0731
20,ACACGTGC,0.346
21,ATAAGGAC,0.0488
22,CAACGGTA,-0.123
23,CACAGCAG,-0.133
24,ACGGGAGC,-0.024
25,TAGGTCCA,0.018

row,Sequence,PBM E-score
1,CCAGATGA,0.076
2,AATACGTA,0.482
3,TATCTTAA,0.0791
4,ATTATCAC,0.259
5,CATGAACG,0.0833
6,AGTCTCAC,-0.0619
7,GGGGGCGA,-0.162
8,CCCAAGCC,-0.278
9,CAGCCACA,-0.127
10,AATCGATT,0.122
11,CTGGCACC,-0.303
12,CTGCGTAC,0.149
13,GTGTGTAA,0.239
14,AGAACCAC,0.0726
15,ACGATCGT,0.183
16,CCTCTTGA,-0.0582
17,GGCCTGTA,-0.355
18,GTGGGGAA,0.0417
19,AAGGCCAT,-0.172
20,CTGCGCAC,0.0185
21,GCCGGTCA,-0.0592
22,GGTGTTAA,0.0644
23,GCGAAACA,-0.0372
24,ACCATTGC,-0.00825
25,CGAGTTAC,0.138

row,Sequence,PBM E-score
1,AGAGGTTC,-0.224
2,CTCAATTC,0.0494
3,CTCACGAG,-0.202
4,ATCATGCA,0.0642
5,CCGAATAC,-0.0263
6,AAATAATG,0.269
7,GGACGAAC,0.0363
8,GCTAAGCA,-0.107
9,ATATGGTA,0.12
10,AACGTAGT,0.414
11,CACATTGA,0.152
12,ACCCTGGC,-0.171
13,GTAAGATA,0.166
14,CGTTGTAA,0.199
15,TATCAAAA,0.118
16,GATCACAA,0.0768
17,ATATACAA,0.219
18,ACTACATC,0.274
19,CTCGTCAC,0.38
20,GAAACGGC,-0.117
21,CAACTTTA,0.248
22,GCCCGAGA,-0.148

# Reference: the supplement of paper PMC3334620
